In PubChem BioAssay AID2546 (National Center for Advancing Translational Sciences (NCATS), 2010):
About 11,000 (3.5%) of roughly 310,000 compounds were called active. Inconclusive means that the source gave no clear call. Such entries were picked first, then a sample of the others. The call rests on the fitted dose curve; in most records, active means well fitted inhibition curve with a large enough effect; inconclusive means small, poorly fitted or top-dose-only effect, or effect the other way; inactive means flat fitted curve, though single readings scatter. No potency is given beside an inconclusive call; the fits are too rough.

Experiment: VP16 counterscreen qHTS for inhibitors of ROR gamma transcriptional activity;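 further: Gal4-VP16 expression switched on by copper sulfate through the metallothionein promoter; nearly all actives have a fitted effect of over 50% in size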
Conditions: Drosophila S2 Gal4-VP16 UAS-luciferase, luminescence, 20 h; series mostly up to 53.6 µM
Potency means the concentration at half of the fitted maximal effect; tags describe the fitted curve by direction and shape.

| Structure (SMILES) | Potency |
| --- | --- |
| CCc1n[nH]c(=S)n1/N=C/c1cc(Br)c(OC)cc1OC | inconclusive [inhibitor, single point] |
| CC(C)(C)c1ccc(-n2ncc3c2CCCC3NC(=O)CCn2cncn2)cc1 (configuration not stated) | inconclusive [inhibitor, single point] |
| O=C(Nc1nnc(SCC(=O)N2CCOCC2)s1)c1ccccc1Cl | active: 6.31 µM |
| COc1ccc(NC(=O)c2cc(-c3cc(C)cc(C)c3O)n[nH]2)cc1Cl | inconclusive [inhibitor, single point] |
| O=C1[C@@H]2Cc3c([nH]c4ccccc34)C(c3cccc([N+](=O)[O-])c3)N2C(=O)CN1C1CCN(Cc2ccccc2)CC1 (some centres not stated) | inconclusive [inhibitor, single point] |
| COc1ccccc1NC(=S)NC(=O)C(C)C | inconclusive [inhibitor, single point] |
| COCCNc1nc(CSc2ccccc2)nc2sc(C)c(C)c12 | inconclusive [inhibitor, single point] |
| CCc1[nH]c(=S)c(C#N)c(-c2ccccc2)c1C(=O)OC | inconclusive [inhibitor, single point] |
| CCOC(=S)SCC(=O)Nc1nccs1 | inconclusive [inhibitor, single point] |
| O=C(CCc1ccc(Oc2cc([N+](=O)[O-])cc([N+](=O)[O-])c2)cc1)N1CCCCCC1 | inconclusive [inhibitor, single point] |
| COC(=O)c1cc(OC)c(OC)cc1NC(=S)Nc1cccc(C(C)=O)c1 | inconclusive [inhibitor, single point] |
| N#Cc1ccc(-c2csc(NNC(=O)c3ccc(Br)cc3)n2)cc1 | inconclusive [inhibitor, partial curve] |
| C=CCC1(CC=C)CCCN1C(=O)c1cc(COc2ccc(F)c(F)c2)on1 | inconclusive [inhibitor, single point] |
| CNc1nc2c(c(=O)n(C)c(=O)n2C)n1CCCc1ccccc1 | inconclusive [inhibitor, single point] |
| Cc1ccc(NC(=O)c2cc(-c3ccccc3)nn2-c2ccccc2)cc1 | inconclusive [inhibitor, single point] |
| CCCCNC(=S)Nc1cccc(C(C)=O)c1 | inconclusive [inhibitor, single point] |
| CCC(=O)NC(c1cccc([N+](=O)[O-])c1)c1c(OC(C)=O)ccc2ccccc12 (configuration not stated) | inactive |
| Cc1nc(SCC(=O)Nc2ccc(F)cc2)c(C#N)c(C)c1CC(=O)c1ccc(Br)cc1 | inconclusive [inhibitor, single point] |
| CCCCOC(=O)Nc1ccc(S(=O)(=O)Nc2ccc([N+](=O)[O-])cc2)cc1 | inconclusive [inhibitor, single point] |
| O=C(CN1CCN(C(=O)C2COc3ccccc3O2)CC1)Nc1ccccc1 (configuration not stated) | inactive |
| Cc1ccc(N/N=C(\C#N)C(=N)N2CCCCC2)cc1 | inconclusive [inhibitor, partial curve] |

| Structure (SMILES) | Potency |
| --- | --- |
| Cc1cc(C(=O)CN2C(=O)C(=O)N(Cc3ccccc3)C2=O)c(C)n1-c1ccc2c(c1)OCCO2 | inactive |
| O=C(CCC(=O)Nc1ccc(Cl)cc1)N/N=C/c1ccc2c(c1)OCO2 | active: 14.1 µM |
| COc1ccc(NC(=O)/C(Cl)=C(/Cl)S(=O)Cc2ccc(Cl)cc2)cn1 (configuration not stated) | active: 2.82 µM |
| CCc1ccc(NC(=O)CNCc2ccc(OC)c(OC)c2)cc1 | inactive |
| COc1ccccc1CNc1nc(-c2ccc3c(c2)OCO3)nc2ccccc12 | inconclusive [inhibitor, single point] |
| O=C(Cn1nnc(-c2ccc3c(c2)OCO3)n1)NCc1ccco1 | inconclusive [activator, full curve, poor fit] |
| O=[N+]([O-])C(/C=C(\Cl)[N+](=O)[O-])=C(N1CCCCC1)N1CCCCC1 | active: 14.1 µM |
| CN(C)c1cccc(C(=O)OCC(=O)Nc2ccccc2-c2ccccc2)c1 | inconclusive [inhibitor, single point] |
| Cc1ccc(-n2nc(C(=O)NCc3ccc(C)o3)c3c4ccccc4n(C)c3c2=O)cc1 | inconclusive [activator, single point] |
| O=C(CCNc1ccc(F)cc1)c1ccco1 | inconclusive [inhibitor, single point] |
| FC(F)(F)Sc1ccc(NC(=S)NCc2ccccc2)cc1 | inconclusive [inhibitor, single point] |
| C/C(=N\NC(=O)CN1CCCCC1)c1ccccc1O | active: 15.8 µM |
| Cc1cccc(NC(=O)CN2C(=O)S/C(=C\c3cc(C)n(C)c3C)C2=O)c1 | inconclusive [inhibitor, single point] |
| Cc1cccc(N=C2NN=C(c3c[nH]c4ccccc34)CS2)c1 | active: 7.94 µM |
| O=C(CSc1n[nH]c(-c2ccccn2)n1)Nc1ccc(Cl)cc1 | active: 0.1 µM |
| BrC(=C\c1ccccc1)/C=N/N1CCN(c2ccccc2)CC1 | inconclusive [inhibitor, single point] |
| O=C(Nc1ccccc1F)NC1CCCCCCC1 | inconclusive [activator, full curve, poor fit] |
| CCn1c2ccc(F)cc2c2nnc(NN)nc21 | inactive |
| Cc1nn(C)cc1/C=N\NC(=O)c1csc2c1CCCC2 | inconclusive [inhibitor, partial curve, poor fit] |
| Cc1ccccc1CS(=O)(=O)Cc1ccc(C(=O)NC2CCCCC2)o1 | inactive |
| COc1ccc(N2CC(C(=O)Nc3nc4ccc(OC)cc4s3)CC2=O)cc1 (configuration not stated) | inactive |

| Structure (SMILES) | Potency |
| --- | --- |
| C/C(=N\NC(=O)c1cc2ccccc2cc1O)c1ccccn1 | active: 0.126 µM |
| CCOC(=O)CN(Cc1ccccc1)S(=O)(=O)c1ccc(NC(C)=O)cc1 | inactive |
| c1ccc2sc(NC3=NCN(C4CCCCCC4)CN3)nc2c1 | inconclusive [inhibitor, single point] |
| CC(=O)c1cccc(NC(=O)NCc2ccccn2)c1 | inconclusive [inhibitor, single point] |
| COC(=O)c1ccc(C(=O)OC)c(NC(=O)CSc2cccc[n+]2[O-])c1 | active: 3.55 µM |
| CC(/C=N/n1c(-c2ccc(C)cc2)n[nH]c1=S)=C\c1ccco1 | active: 2.82 µM |
| O=C1O/C(=C/C(=O)N2CCOCC2)c2ccccc21 | inconclusive [inhibitor, single point] |
| COc1cccc(CNCCc2c[nH]c3ccccc23)c1OCc1ccccc1F | inconclusive [inhibitor, single point] |
| Cc1cc2c(s1)c1cnn(Cc3ccccc3F)c(=O)c1n2C | inconclusive [inhibitor, single point] |
| O=C(Nc1cc(Cl)ccc1O)c1snnc1-c1ccccc1 | inconclusive [inhibitor, single point] |
| COc1cc(Cl)ccc1OCc1cc(C(=O)N2C[C@]3(C)C[C@H]2CC(C)(C)C3)no1 | inconclusive [inhibitor, single point] |
| O=C(COC(=O)c1ccc(O)cc1)Nc1cccc(S(=O)(=O)N2CCCCC2)c1 | inconclusive [inhibitor, single point] |
| Cc1nc(NC(=O)c2ccc(Cl)cc2)sc1Cc1ccc2c(c1)OCO2 | inconclusive [inhibitor, single point] |
| CC1=C(C(=O)Nc2ccc(C)cc2)C(c2cccs2)NC(=S)N1 (configuration not stated) | inconclusive [activator, single point] |
| O=C(c1ccc(F)cc1)c1ccc(CN2C(=O)c3ccccc3C2=O)o1 | inconclusive [inhibitor, single point] |
| CC[C@H](C)[C@H](NC(=O)[C@H](CCC(=O)O)NC(=O)[C@@H](N)CO)C(=O)N[C@@H](CCC(N)=O)C(=O)N[C@@H](CC(C)C)C(=O)N[C@@H](CCSC)C(=O)N[C@@H](Cc1cnc[nH]1)C(=O)N[C@@H](CC(N)=O)C(=O)N[C@@H](CC(C)C)C(=O)NCC(=O)N[C@@H](CCCCN)C(=O)N[C@@H](Cc1cnc[nH]1)C(=O)N[C@@H](CC(C)C)C(=O)N[C@@H](CC(N)=O)C(=O)N[C@@H](CO)C(=O)N[C@@H](CCSC)C(=O)N[C@@H](CCC(=O)O)C(=O)N[C@@H](CCCNC(=N)N)C(=O)N[C@H](C(=O)N[C@@H](CCC(=O)O)C(=O)N[C@@H](Cc1c[nH]c2ccccc12)C(=O)N[C@@H](CC(C)C)C(=O)N[C@@H](CCCNC(=N)N)C(=O)N[C@@H](CCCCN)C(=O)N[C@@H](CCCCN)C(=O)N[C@@H](CC(C)C)C(=O)N[C@@H](CCC(N)=O)C(=O)N[C@@H](CC(=O)O)C(=O)N[C@H](C(=O)N[C@@H](Cc1cnc[nH]1)C(=O)N[C@@H](CC(N)=O)C(=O)N[C@@H](Cc1ccccc1)C(=O)O)C(C)C)C(C)C | inactive |
| CC(=O)CCc1oc2c([N+](=O)[O-])cccc2c1-c1ccc(C)o1 | inconclusive [inhibitor, single point] |
| CCN1CCN(CC(=O)Nc2sc3c(c2C#N)CCC(C)C3)CC1 (configuration not stated) | inactive |
| CC(C)CC1(C(=O)NCC2CC2)C=CCN1C(=O)c1ccccc1 (configuration not stated) | inconclusive [activator, partial curve] |
| O=C(CN1C(=O)S/C(=C\c2ccc(-c3cc(C(=O)O)ccc3Cl)o2)C1=O)Nc1ccc2c(c1)OCO2 | inactive |
